Measured values as given in PubChem BioAssay AID1466 (National Center for Advancing Translational Sciences (NCATS), 2008).
Hit rate of the full screen: of about 200,000 compounds, about 10 (0.005%) were called active. Inconclusive means that the source gave no clear call. Such entries were picked first, then a sample of the others. Calls follow the shape of the dose curve; as a rule, active = well fitted inhibition curve with a large enough effect; inconclusive = small, poorly fitted or top-dose-only effect, or effect the other way, or another doubt; inactive = no such curve, though single readings can be large or run the other way. Where the call is inconclusive, the potency comes from a doubtful curve fit.

Each compound was assayed against Lysosomal alpha-glucosidase (Homo sapiens) (UniProt P10253) (assay: qHTS Assay for Inhibitors of Human alpha-Glucosidase as a Potential Chaperone Treatment of Pompe Disease). Details: purified human GAA, 4-MU-alpha-glucoside fluorescence; activity change, negative = inhibition: at 76.9 µM (top of the series) unless noted.
Method in brief: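 qHTS format, compound range up to 77 uM. Human lysosomal enzyme at 4 nM, 400 uM 4-MU glucoside substrate, pH 5.0, 20 min room temperature; fluorescence after alkaline stop gives activity normalized to controls.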
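For activity change, negative = inhibition in this document: plate controls were uninhibited enzyme wells for no effect and no-enzyme background for full effect.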
Potency is read from the fitted curve at half-maximal effect; tags tell the direction and shape of the fitted curve.

| Compound | Potency | activity change, negative = inhibition |
| --- | --- | --- |
| O=C(Nc1ccc(-c2nc3ccccc3o2)cc1)c1ccc(N2C(=O)C3C4C=CC(C4)C3C2=O)cc1 (stereo not given) | inconclusive: 35.5 µM [activator, single point] |  |
| CCCC1=NN2C(=N)/C(=C\c3cc(C)n(-c4cccc(C)c4)c3C)C(=O)N=C2S1 | inconclusive: 20 µM [inhibitor, single point] |  |
| COCCNc1c(-c2cc3ccc(C)c(C)c3[nH]c2=O)nc2ccccn12 |  | inconclusive: 2.7% [activator] |
| CC1C(=O)C(C)C(c2ccc([N+](=O)[O-])cc2)NC1c1ccc([N+](=O)[O-])cc1 (stereo not given) |  | inconclusive: 10.9% [activator] |
| OC(COCc1cccs1)CN1CCCCCC1 (stereo not given) | inconclusive: 35.5 µM [inhibitor, single point] |  |
| C[C@]1(C(=O)NCCCNc2ncc(C(F)(F)F)cc2Cl)C=C[C@@H](Cc2ccccc2)N1C(=O)c1ccccc1 | inconclusive: 22.4 µM [inhibitor, partial curve, poor fit] |  |
| Cc1nnc(NC(=O)C2COc3ccccc3O2)s1 (stereo not given) | inconclusive: 6.31 µM [inhibitor, single point] |  |
| Cc1cc(NCCO)c2cc(O)ccc2n1 | inconclusive: 8.91 µM [activator, partial curve] |  |
| O=S(=O)(c1ccc2ccccc2c1)N1CCN(C(=S)Nc2ccc(F)cc2)CC1 | inconclusive: 50.1 µM [inhibitor, single point] |  |
| CC(C)Cc1cc(CN2CCCC(CO)(Cc3cccc(Cl)c3)C2)[nH]n1 (stereo not given) | inconclusive: 12.6 µM [inhibitor, partial curve] |  |
| COc1ccc(S(=O)(=O)N2CCOCC2)cc1NC(=O)CCc1c[nH]c2ccccc12 | inconclusive: 56.2 µM [inhibitor, single point] |  |
| N#Cc1cc(C(=O)c2cc(F)ccc2O)cn(Cc2ccccc2)c1=O | inconclusive: 5.01 µM [inhibitor, single point] |  |
| O=C(NC1CCCCC1)C(c1ccccc1)N(Cc1ccco1)C(=O)Cn1cnc2ccccc21 (stereo not given) | inconclusive: 35.5 µM [inhibitor, partial curve] |  |
| CCCCC(C(=O)NC1CCCC1)N(Cc1ccco1)C(=O)Cn1nnc(-c2ccc(F)cc2)n1 (stereo not given) | inconclusive: 56.2 µM [inhibitor, single point] |  |
| S=C(Nc1ccccc1Cl)N1CCN(Cc2ccccc2)CC1 | inconclusive: 2 µM [inhibitor, partial curve] |  |
| Cc1cccn2c(=O)c3cc(C(=O)NCc4ccco4)c(=N)n(CCOCCO)c3nc12 | inconclusive: 35.5 µM [inhibitor, partial curve, poor fit] |  |
| O=C(O)c1ccc(-c2nc(-c3ccccc3)c(-c3ccccc3)[nH]2)cc1 | inconclusive: 35.5 µM [activator, partial curve] |  |
| COc1ccc(OCc2nnc(SCc3ccc(C(=O)O)cc3)o2)cc1 | inconclusive: 11.2 µM [inhibitor, partial curve] |  |
| O=C1OC(c2ccccc2)=C/C1=C/N1CCOCC1 |  | inactive: -9.77% |
| CN(C)S(=O)(=O)c1cc(NC(=O)CSc2ncc(C(F)(F)F)cc2Cl)ccc1Cl | inconclusive: 25.1 µM [inhibitor, partial curve] |  |
| Nc1nc2ccc(-c3nc4ccccc4o3)cc2s1 | inconclusive: 50.1 µM [activator, single point] |  |
| O=c1nc2c(O)cccn2c2c1c(=O)[nH]c1ccccc12 | inconclusive: 35.5 µM [inhibitor, partial curve] |  |

| Compound | Potency | activity change, negative = inhibition |
| --- | --- | --- |
| COc1ccc(-n2nc3cc(C)c(NC(C)=O)cc3n2)cc1 | inconclusive: 44.7 µM [activator, partial curve] |  |
| COc1ccc(/C=N/N(C(C)=O)c2nc(-c3ccc(C)cc3)cs2)cc1 |  | inconclusive: 22.8% [activator] |
| O=C(NN1CCOCC1)c1cc(S(=O)(=O)Nc2cccc(C(F)(F)F)c2)ccc1Cl | inconclusive: 11.2 µM [inhibitor, single point] |  |
| CCOc1ccc(N2CC(O)=C(c3nc4ccccc4c(=O)[nH]3)C2=N)cc1 | inconclusive: 31.6 µM [activator, single point] |  |
| C=CCNCCOCCOc1ccc(Cl)cc1C(C)(C)C | inconclusive: 28.2 µM [inhibitor, partial curve, poor fit] |  |
| CS(=O)(=O)N(CC(=O)N1CCN(C(c2ccccc2)c2ccccc2)CC1)C1CCCCC1 | inconclusive: 39.8 µM [inhibitor, partial curve, poor fit] |  |
| Cc1cccc(CSc2ccc(-c3ccco3)nn2)c1 |  | inconclusive: -18.2% [inhibitor] |
| Cc1cc(SCC(=O)N/N=C/c2ccc(O)c(O)c2)c(C)cc1Br |  | inactive: -4.21% |
| Cc1cccc(S(=O)(=O)c2c(N)n(Cc3ccco3)c3nc4ccccc4nc23)c1 | inconclusive: 31.6 µM [activator, partial curve] |  |
| O=C(Oc1ccc2ccc(=O)oc2c1)c1cccs1 | inconclusive: 44.7 µM [activator, single point] |  |
| O=C1CCCC(=O)C1C(=O)C1CCN(S(=O)(=O)c2ccccc2)CC1 |  | inconclusive: -18.8% [inhibitor] |
| Cc1cc(C)c2c(N)c3ccccc3nc2n1 | inconclusive: 15.8 µM [activator, partial curve] |  |
| O=C1CC(c2ccc(F)cc2)Sc2ccccc2N1 (stereo not given) | inconclusive: 5.62 µM [inhibitor, single point] |  |
| O=C(NCc1ccc(F)cc1Cl)C1CCN(S(=O)(=O)N2CCC3(CC2)OCCO3)CC1 | inconclusive: 5.01 µM [inhibitor, single point] |  |
| Cc1ccc2nc3c(cc(C(=O)NCC4CCCO4)c(=N)n3CCCOC(C)C)c(=O)n2c1 (stereo not given) | inconclusive: 31.6 µM [activator, partial curve] |  |
| COCCCNC(=S)N1CCCN(c2nc3cc(C)ccc3cc2C#N)CC1 |  | inconclusive: 20.7% [activator] |
| CCOc1ccc(-n2c(CCc3ccccc3)n[nH]c2=S)cc1 |  | inconclusive: 16.7% [activator] |
| CCOC(=O)c1cc2ccc(OC)c(OC)c2c(=O)s1 | inconclusive: 12.6 µM [activator, single point] |  |
| Cc1ccnc2nc(C(=O)Nc3cc(Cl)ccc3N3CCOCC3)nn12 | inconclusive: 12.6 µM [inhibitor, single point] |  |
| C=CCNC(=O)Nc1ccc2nc(C)sc2c1 | inconclusive: 50.1 µM [inhibitor, single point] |  |
| Cc1cnc(C)c(N2CCN(Cc3cn(C)nc3-c3cccc(Cl)c3)CC2)n1 |  | inconclusive: 13.2% [activator] |
| COc1ccc(-c2nn(-c3ccccc3)cc2C(=O)O)cc1 |  | inconclusive: 17.3% [activator] [at 15.4 µM] |

| Compound | Potency | activity change, negative = inhibition |
| --- | --- | --- |
| CCOC(=O)C1=C(CN2CCc3ccccc32)NC(=O)NC1c1ccc(Cl)cc1 (stereo not given) | inconclusive: 44.7 µM [inhibitor, partial curve, poor fit] |  |
| CCOC(=O)c1c(C)oc2c1c(C=NC1CCS(=O)(=O)C1)c(O)c1ccccc12 (stereo not given) | inconclusive: 50.1 µM [inhibitor, single point] |  |
| NS(=O)(=O)c1ccc(N/N=C/c2ccccc2Br)cc1 |  | inconclusive: -16.1% [inhibitor] |
| Cc1cccc(-n2c3nc(=O)[nH]c(=O)c-3cc3c(C)nn(-c4ccccc4)c32)c1 | inconclusive: 20 µM [activator, partial curve] |  |
| Cc1ccccc1NC(=S)NCc1ccc2c(c1)OCO2 | inconclusive: 0.251 µM [inhibitor, full curve, poor fit] |  |
| CCCCC(CCCCl)C(=O)Nc1ccccc1 (stereo not given) |  | inconclusive: 13.3% [activator] |
| CCOC(=O)Cc1csc(NC(=O)NC2(C(F)(F)F)Oc3ccccc3O2)n1 |  | inactive: -8.77% |
| Cn1c(=O)c2cc(S(=O)(=O)N3CCOCC3)ccc2n(C)c1=O |  | inconclusive: -16.3% [inhibitor] |
| CCn1cc(S(=O)(=O)c2ccc(C)cc2)[nH]c1=O |  | inactive: -5.96% |
| CCOc1ccc(N(C(=O)/C=C/C(=O)Nc2cc(C)on2)C(C(=O)NC2CCCC2)c2ccccc2C)cc1 (stereo not given) | inconclusive: 0.282 µM [inhibitor, full curve, poor fit] |  |
| CC1(C)CC(=O)C2=C(C1)c1c(ccc3ncccc13)NC2c1cccs1 (stereo not given) |  | inactive: 1.03% |
| CO/N=C(\Cn1ncc(N2CCCC2)c(Cl)c1=O)c1ccc(Cl)cc1 | inconclusive: 1.41 µM [inhibitor, full curve, poor fit] |  |
| CCOc1ccccc1OCc1nn2c(-c3ccc(C)cc3)nnc2s1 | inconclusive: 31.6 µM [inhibitor, single point] |  |
| S=C(NCc1ccc(Cl)cc1)NCc1ccccn1 |  | inconclusive: 9.03% [activator] |
| O=C(CN1CCN(C(c2ccccc2)c2ccccc2)CC1)NC(=O)NCc1ccco1 |  | inconclusive: -16.3% [inhibitor] |
| CCOC(=O)c1cnc(SCc2nc(N)nc(Nc3ccccc3)n2)nc1N |  | inconclusive: -15.9% [inhibitor] |
| CCOC(=O)c1cc2c(=O)n3ccccc3nc2n(CC2CCCO2)c1=NC(=O)/C=C/c1ccccc1 (stereo not given) | inconclusive: 39.8 µM [activator, partial curve] |  |
| CC(=O)c1ccc(N2CCN(c3ccc(C(N)=O)cc3[N+](=O)[O-])CC2)cc1 |  | inactive: 5.56% |
| Cc1[nH]c2ccccc2c1NC(=O)CN1CCN(c2cccc(C(F)(F)F)c2)CC1 |  | inactive: -1.5% |
| COC(=O)c1cn(CC(=O)N2C(C)CCCC2C)c2ccccc12 (stereo not given) | inconclusive: 56.2 µM [inhibitor, single point] |  |
| COc1ccc(NS(=O)(=O)c2c(C)cc(C)cc2C)cc1 |  | inconclusive: -15.1% [inhibitor] |
